Reference: the supplement of paper PMC12217912
Some of the results follow. Sequences were assembled here from the parent chain. Values near 0.05 are background.

B1: TEV protease; numbered along this chain (parent)
chain: MGESLFKGPRDYNPISSSICHLTNESDGHTTSLYGIGFGPFIITNKHLFRRNNGTLVVQSLHGVFKVKDTTTLQQHLVDGRDMIIIRMPKDFPPFPQKLKFREPQREERICLVTTNFQTKSMSSMVSDTSCTFPSGDGIFWKHWIQTKDGQCGSPLVSTRDGFIVGIHSASNFTNTNNYFTSVPKNFMELLTNQEAQQWVSGWRLNADSVLWGGHKVFMVKPEEPFQPVKEATQL

Variants of: B1
Test: raw area under fraction-flipped curve 0-4 h after induction (AUC4h, not background-subtracted), DNA-recorder readout of cleavage of the substrate (dimensionless); higher = more cleavage of the substrate by the protease variant
Details: temperature: 34 °C; time window: 0-4 h after rhamnose induction
Method: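 In vivo DNA recorder in E. coli TOP10(DE3) ΔrhaA at 34 °C. Each TEVp single-site mutant (parent TEVp 0) is paired with a single-site variant of the 7-mer TEVs (canonical ENLYFQ|S). The substrate sits between flexible linkers in a Bxb1-sfGFP-TEVs-SsrA fusion, so cleavage stabilises Bxb1 and speeds flipping of a recombination array, read by NGS. The value is the raw area under the fraction-flipped curve over 0-4 h after rhamnose induction (AUC4h), with ≥20 reads per time point. It is not background-subtracted; inactive controls average about 0.047.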
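Note: Bxb1 expression induced with 0.2% (w/v) L-rhamnose at OD600 near 0.5, cultures sampled hourly, flipped fraction per protease–substrate barcode pair counted by paired-end Illumina sequencing.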

Variant: MGESLFKGPRDYNPISSSICHLTNESDGHTTSLYGIGFGPFIITNKHLFRRNNGTLVVQSLHGVFKVKDTTTLQQHLVDGRDMIIIRMPKDFPPFPQKLKFREPQREERICLVTTNFQTKSMSSMVSDTSCTFPSGDGIFWKHWIQTKDGQCGSPLVSTRDGFIVGIHSASNFTNTNNYFTSVPKNFMELLTNQEQQQWVSGWRLNADSVLWGGHKVFMVKPEEPFQPVKEATQL [A196Q]
- area with substrate ENLYDQS: 0.0743
- area with substrate ENLYEQS: 0.0666
- area with substrate ENLYGQS: 0.0609
- area with substrate ENLYHQS: 0.0677
- area with substrate ENLYMQS: 0.0932
- area with substrate ENLYNQS: 0.073
- area with substrate ENLYPQS: 0.0775
- area with substrate ENLYRQS: 0.0711
- area with substrate ENLYSQS: 0.0752
- area with substrate ENLYVQS: 0.0894

Variant: MGESLFKGPRDYNPISSSICHLTNESDGHTTSLYGIGFGPFIITNKHLFRRNNGTLVVQSLHGVFKVKDTTTLQQHLVDGRDMIIIRMPKDFPPFPQKLKFREPQREERICLVTTNFQTKSMSSMVSDTSCTFPSGDGIFWKHWIQTKDGQCGSPLVSTRDGFIVGIHSASNFTNTNNYFTSVPKNFMELLTNQEAQQWVSMWRLNADSVLWGGHKVFMVKPEEPFQPVKEATQL [G202M]
- area with substrate ENLYDQS: 0.0495
- area with substrate ENLYEQS: 0.0535
- area with substrate ENLYGQS: 0.067
- area with substrate ENLYHQS: 0.054
- area with substrate ENLYKQS: 0.0629
- area with substrate ENLYMQS: 0.0548
- area with substrate ENLYNQS: 0.0529
- area with substrate ENLYPQS: 0.0696
- area with substrate ENLYQQS: 0.0547
- area with substrate ENLYRQS: 0.0585
- area with substrate ENLYSQS: 0.0437
- area with substrate ENLYVQS: 0.0924
- area with substrate ENLYWQS: 0.0679
- area with substrate ENLYYQS: 0.0588

Variant: MGESLFKGPRDYNPISSSICHLTNESDGHTTSLYGIGFGPFIITNKHLFRRNNGTLVVQSLHGVFKVKDTTTLQQHLVDGEDMIIIRMPKDFPPFPQKLKFREPQREERICLVTTNFQTKSMSSMVSDTSCTFPSGDGIFWKHWIQTKDGQCGSPLVSTRDGFIVGIHSASNFTNTNNYFTSVPKNFMELLTNQEAQQWVSGWRLNADSVLWGGHKVFMVKPEEPFQPVKEATQL [R81E]
- area with substrate ENLYDQS: 0.067
- area with substrate ENLYEQS: 0.0574
- area with substrate ENLYHQS: 0.0625
- area with substrate ENLYKQS: 0.0724
- area with substrate ENLYNQS: 0.0622
- area with substrate ENLYPQS: 0.0648
- area with substrate ENLYQQS: 0.0682
- area with substrate ENLYSQS: 0.0542
- area with substrate ENLYVQS: 0.0601
- area with substrate ENLYWQS: 0.0705
- area with substrate ENLYYQS: 0.055

Variant: MGESLFKGPRDYNPISSSICHLTNESDGHTTSLYGIGFGPFIITNKHLFRRNNGTLVVQSLHGVFKVKDTTTLQQHLVDGRDMIIIRMPKDFPPFPQKLKFREPQREERICLVTTNFQTKLMSSMVSDTSCTFPSGDGIFWKHWIQTKDGQCGSPLVSTRDGFIVGIHSASNFTNTNNYFTSVPKNFMELLTNQEAQQWVSGWRLNADSVLWGGHKVFMVKPEEPFQPVKEATQL [S121L]
- area with substrate ENLYDQS: 0.0604
- area with substrate ENLYEQS: 0.0751
- area with substrate ENLYGQS: 0.0676
- area with substrate ENLYHQS: 0.0649
- area with substrate ENLYIQS: 0.0831
- area with substrate ENLYKQS: 0.0612
- area with substrate ENLYLQS: 0.078
- area with substrate ENLYNQS: 0.0661
- area with substrate ENLYPQS: 0.075
- area with substrate ENLYQQS: 0.0659
- area with substrate ENLYSQS: 0.0964
- area with substrate ENLYVQS: 0.0915
- area with substrate ENLYWQS: 0.0669
- area with substrate ENLYYQS: 0.0697

Variant: MGESLFKGPRDYNPISSSICHLTNESDGHTTSLYGIGFGPFIITNKHLFRRNNGTLVVQSLHGVFKVKDTTTLQQHLVDGRDMIIIRMPKDFPPFPQKLKFREPQREERICLVTTNFQTKSMSSMVSDTSCRFPSGDGIFWKHWIQTKDGQCGSPLVSTRDGFIVGIHSASNFTNTNNYFTSVPKNFMELLTNQEAQQWVSGWRLNADSVLWGGHKVFMVKPEEPFQPVKEATQL [T132R]
- area with substrate ENLYDQS: 0.0569
- area with substrate ENLYEQS: 0.063
- area with substrate ENLYGQS: 0.051
- area with substrate ENLYHQS: 0.0537
- area with substrate ENLYMQS: 0.0427
- area with substrate ENLYQQS: 0.0567
- area with substrate ENLYSQS: 0.0514
- area with substrate ENLYVQS: 0.0473
- area with substrate ENLYWQS: 0.0542

Variant: MGESLFKGPRDYNPISSSICHLTNESDGHTTSLYGIGFGPFIITNKHLFRRNNGTLVVQSLHGVFKVKDTTTLQQHLVDGRDMIIIRMPKDFPPFPQKLKFREPQREERICLVTTNFQTKSMSSMVSDTSCTFPSGDGIFWKHWIQTKDGQCGSPLVSTRDGFIVGIHSASNFTNTNNYFTSVPKNFMELLTNQEAQQWVSGWRENADSVLWGGHKVFMVKPEEPFQPVKEATQL [L205E]
- area with substrate ENLYDQS: 0.0605
- area with substrate ENLYEQS: 0.0529
- area with substrate ENLYGQS: 0.062
- area with substrate ENLYMQS: 0.0538
- area with substrate ENLYSQS: 0.0595
- area with substrate ENLYVQS: 0.0788
- area with substrate ENLYWQS: 0.0537

Variant: MGESLFKGPRDYNPISSSICHLTNESDGHTTSLYGIGFGPFIITNKHLFRRNNGTLVVQSLHGVFKVKDTTTLQQHLVDGRDMIIIRMPKDFPPFPQKLKFREPQREERICLVTTNFQTKSMSSMVSDTSCTFPSGDGIFWKHWIQTKDGQCGSPLVSTRDGFIVGIHSASNFTNTNNYFTSVPKNFMELLTNQEAQQWVSGWRLNADSVLWGGHKVFMVKPEEPFQPVKEATRL [Q234R]
- area with substrate ENLYDQS: 0.0524
- area with substrate ENLYEQS: 0.0636
- area with substrate ENLYGQS: 0.0669
- area with substrate ENLYHQS: 0.0791
- area with substrate ENLYIQS: 0.119
- area with substrate ENLYKQS: 0.0669
- area with substrate ENLYLQS: 0.0676
- area with substrate ENLYMQS: 0.0848
- area with substrate ENLYNQS: 0.0694
- area with substrate ENLYRQS: 0.0824
- area with substrate ENLYWQS: 0.0782
- area with substrate ENLYYQS: 0.0882

Variant: MGESLFKGPRDYNPISSSICHLTNESDGHTTSLYGIGFGPFIITNKHLFRRNNGTLVVQSLHGVFKVKDTTTLQQHLVDGRDMIIIRMPKDFPPFPQKLKFREPQHEERICLVTTNFQTKSMSSMVSDTSCTFPSGDGIFWKHWIQTKDGQCGSPLVSTRDGFIVGIHSASNFTNTNNYFTSVPKNFMELLTNQEAQQWVSGWRLNADSVLWGGHKVFMVKPEEPFQPVKEATQL [R106H]
- area with substrate ENLYDQS: 0.077
- area with substrate ENLYGQS: 0.0541
- area with substrate ENLYHQS: 0.0785
- area with substrate ENLYIQS: 0.117
- area with substrate ENLYKQS: 0.0603
- area with substrate ENLYMQS: 0.094
- area with substrate ENLYNQS: 0.0953
- area with substrate ENLYPQS: 0.0777
- area with substrate ENLYQQS: 0.0717
- area with substrate ENLYRQS: 0.0618
- area with substrate ENLYSQS: 0.0755
- area with substrate ENLYTQS: 0.0658
- area with substrate ENLYVQS: 0.11
- area with substrate ENLYWQS: 0.119
- area with substrate ENLYYQS: 0.0657

Variant: MGESLFKGPRDYNPISSSICHLTNESDGHTTSLYGIGFGPFIITNKHLFRRNNGTLVVQSLHGVFKVKDTTTLQQHLVDGRDMIIIRMPKDFPPFPQKLKFREPQREERICLVTTNFQTKSMSSMVSDTSCTFPSGDGIFWKHWIQTKDGQCGSPLVSLRDGFIVGIHSASNFTNTNNYFTSVPKNFMELLTNQEAQQWVSGWRLNADSVLWGGHKVFMVKPEEPFQPVKEATQL [T159L]
- area with substrate ENLYDQS: 0.0575
- area with substrate ENLYEQS: 0.0582
- area with substrate ENLYGQS: 0.0529
- area with substrate ENLYHQS: 0.0473
- area with substrate ENLYIQS: 0.119
- area with substrate ENLYKQS: 0.0377
- area with substrate ENLYNQS: 0.0616
- area with substrate ENLYQQS: 0.0554
- area with substrate ENLYSQS: 0.0593
- area with substrate ENLYVQS: 0.0867
- area with substrate ENLYWQS: 0.082
- area with substrate ENLYYQS: 0.074
